# Laboratory results reported in PubChem BioAssay (Tox21).
# Inconclusive means that the source gave no clear call. Such entries were picked first, then a sample of the others. Where a call stands in place of a potency, no number is given. For some of these results: Potencies of inconclusive entries are doubtful fits and often do not repeat. Calls of active or inactive are those of the source. Unless noted, calls follow the shape of the dose curve; as a rule, active = well fitted curve in the direction sought with a large enough effect in the repeat runs; inconclusive = weak or mixed curves; inactive = no such curve, though single readings can be large; an effect the other way counts as inactive or inconclusive.
# Experiments:
# [1] = qHTS assay to identify small molecule agonists of H2AX - cell viability counter screen (AID 1224847; calls by dose curve; also: top concentration of the series differs between compounds; nearly all actives have a fitted effect of over 30% in size)
# Method in brief: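 CHO-K1 wt, 1000 cells/well, o/n 37C; cpds 15 conc, 3 h 37C, 0.76% DMSO; CellTiter-Glo, 30 min RT, luminescence.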
# [2] = A CellTox Green Cytotoxicity Assay to monitor cytotoxicity in HEK293 cells - 40 hour (AID 1224871); also: nearly all actives have a fitted effect of over 45% in size; also: potency is read from the fitted curve at half-maximal effect
# Method in brief: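 Each value comes from one timepoint of a single continuous run in which HEK293 cells with CellTox Green were exposed to compound for up to 40 h at 37 C, dye fluorescence rising with cell death.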
# [3] = Caspase-3/7 induction in HepG2 cells by small molecules, qHTS cell viability counter screen (AID 1346981); also: nearly all actives have a fitted effect of over 30% in size; also: potency is read from the fitted curve at half-maximal effect
# Method in brief: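 Counter screen for cytotoxicity: HepG2 exposed 16 hr to compounds, then CellTiter-Fluor viability signal (fluorescence, 1 hr reagent incubation).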
# [4] = target: Nuclear receptor subfamily 1 group I member 2 (Homo sapiens) (UniProt O75469); assay: Human pregnane X receptor (PXR) small molecule agonists, qHTS assay (AID 1346982); also: nearly all actives have a fitted effect of over 35% in size; also: potency is read from the fitted curve at half-maximal effect
# Method in brief: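 Luminescence (ONE-Glo, 30 min RT) after 24 hr compound exposure of PXR-Luc HepG2 cells; cells rested 5 hr post-plating in 5% charcoal-stripped FBS medium.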
# [5] = target: Cytochrome P450 2C19 (Homo sapiens) (UniProt P33261); assay: Cytochrome P450 Family 2 Subfamily C Member 19 (CYP2C19) small molecule antagonists: luciferase reporter qHTS assay (AID 1671197); also: potency is read from the fitted curve at half-maximal effect; nearly all actives have a fitted effect of over 65% in size
# Method in brief: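 Relative luminescence units recorded 20 min after the detection reagent stopped a 1 h, 37C CYP2C19 reaction on proluciferin substrate, which was started by NADPH regeneration following 10 min room-temperature compound preincubation; ketoconazole positive control.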
# [6] = target: Estrogen receptor beta (Homo sapiens) (UniProt Q92731); assay: qHTS assay to identify small molecule agonists of the estrogen receptor beta (ER-beta) signaling pathway (AID 1259377; active = well fitted activation curve with a large enough effect in the signal ratio in the repeat runs, not every such curve was filed as active; inconclusive = weak or mixed curves, or effect the other way; the % refers to the signal ratio; also: potency is read from the fitted curve at half-maximal effect); conditions: ER-beta-UAS-bla HEK293T, beta-lactamase FRET ratio, 16 h
# Method in brief: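 Beta-lactamase reporter readout: fluorescence of LiveBLAzer B/G FRET substrate after 2 h at room temperature, following 16 h compound treatment of ER-beta-UAS-bla HEK293T cells at 37C in 2% charcoal-stripped FBS medium.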
# [7] = target: Peroxisome proliferator-activated receptor gamma (Homo sapiens) (UniProt P37231); assay: qHTS assay to identify small molecule agonists of the peroxisome proliferator-activated receptor gamma (PPARg) signaling pathway (AID 743094; active = well fitted activation curve with a large enough effect in the signal ratio in the repeat runs, not every such curve was filed as active; inconclusive = weak or mixed curves, or effect the other way; inactive = no such curve, though single readings can be large or run the other way; the % refers to the signal ratio); conditions: HEK293H PPARg-UAS-bla, beta-lactamase FRET ratio, 17 h; activation: at 57 µM (top of the series) unless noted
# Method in brief: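 Stably transfected HEK293H cells (GeneBLAzer PPARg UAS-bla) were incubated with test substances for 17 h at 37C after a 5 h pre-incubation; beta-lactamase activity was then detected by FRET substrate fluorescence.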
# [8] = qHTS assay to identify small molecule agonists of H2AX (AID 1224845; active = well fitted activation curve with a large enough effect in the signal ratio in the repeat runs, not every such curve was filed as active; inconclusive = weak or mixed curves; the % refers to the signal ratio; also: potency is read from the fitted curve at half-maximal effect); conditions: CHO-K1 phospho-H2AX Ser139 HTRF, 3 h; activation (H2AX phosphorylation): at 154 µM (top of the series) unless noted
# Method in brief: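 Wild-type CHO-K1 cells, plated overnight, exposed 3hr at 37C to 15 concentrations (0.76% DMSO final). Lysed, then HTRF anti-pH2AX (S139) cryptate and anti-H2AX-d2 antibodies, 24 hr room temperature; 665/620 nm emission read.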
# [9] = qHTS assay to identify small molecule antagonists of the estrogen related receptor signaling pathway with the pleiotropic PPARgamma coactivator (PGC) from Tox21 10K library - cell viability counter screen (AID 1224840; active = well fitted cell-killing curve with a large enough effect in the repeat runs, not every such curve was filed as active; inconclusive = weak or mixed curves, or effect the other way; inactive = no such curve, though single readings can be large or run the other way; also: nearly all actives have a fitted effect of over 40% in size; also: potency is read from the fitted curve at half-maximal effect)
# Method in brief: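 Compounds in DMSO, alongside positive and negative controls, were pinned onto PGC/ERR cells (2,000 per well). Exposure lasted 17.5 hours at 37 C, followed by a 30-minute CellTiter-Fluor incubation and fluorescence reading.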
# [10] = target: Cytochrome P450 3A4 (Homo sapiens) (UniProt P08684); assay: Cytochrome P450 Family 3 Subfamily A Member 4 (CYP3A4) small molecule antagonists: luciferase reporter qHTS assay (AID 1671201); also: potency is read from the fitted curve at half-maximal effect; nearly all actives have a fitted effect of over 50% in size
# Method in brief: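 Luminescent readout (RLU) proportional to CYP3A4 activity, from luciferin generated off a proluciferin substrate. Enzyme–substrate mix plus compound 10 min at room temp, NADPH regeneration 1 h, detection reagent 20 min.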
# [11] = Caspase-3/7 induction in CHO-K1 cells by small molecules, qHTS cell viability counter screen (AID 1346979); also: nearly all actives have a fitted effect of over 35% in size; also: potency is read from the fitted curve at half-maximal effect
# Method in brief: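 CHO-K1 wt, 1,500 cells/well; 5hr pre-incubation 37C/5% CO2; compound pin transfer (DMSO); 16hr exposure; CellTiter-Fluor added, 1hr, fluorescence read.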
# [12] = target: Estrogen receptor (Homo sapiens) (UniProt P03372); assay: qHTS assay to identify small molecule antagonists of the estrogen receptor alpha (ER-alpha) signaling pathway (AID 743069; active = well fitted curve in the direction sought with a large enough effect in the signal ratio in the repeat runs, not every such curve was filed as active; inconclusive = weak or mixed curves, or effect the other way; inactive = no such curve, though single readings can be large or run the other way; the % refers to the signal ratio); conditions: HEK293 ER-alpha-UAS-bla, beta-lactamase ratio, antagonist mode; activity, negative = inhibition: at 69.4 µM (top of the series) unless noted
# Method in brief: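 HEK293 ER-alpha-UAS-bla GripTite cells, held overnight in 2% charcoal-stripped FBS, 5,000 cells/well, preincubated 4 h, then compound plus 17beta-estradiol for 18 h at 37C. Beta-lactamase read by LiveBLAzer B/G FRET substrate, 2 h at room temperature.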
# [13] = target: Estrogen receptor (Homo sapiens) (UniProt P03372); assay: qHTS assay to identify small molecule agonists of the estrogen receptor alpha (ER-alpha) signaling pathway using the BG1 cell line (AID 743079); conditions: BG1Luc4E2 cells, ERE-luciferase agonist, 22 h; activation: at 70.3 µM (top of the series) unless noted; also: nearly all actives have a fitted effect of over 20% in size
# [14] = qHTS assay to identify small molecule agonists of the estrogen receptor beta (ER-beta) signaling pathway - cell viability counter screen (AID 1259380); also: nearly all actives have a fitted effect of over 30% in size; also: potency is read from the fitted curve at half-maximal effect
# Method in brief: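 Viability of ER-beta-UAS-bla HEK293T cells was determined by CellTiter-Glo luminescence following 16 hr treatment with test compounds at 37C.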
# [15] = qHTS assay to identify small molecule antagonists of the estrogen receptor alpha (ER-alpha) signaling pathway - cell viability counter screen (AID 743074; calls by dose curve;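 also: HEK293 cells carrying ER-alpha-UAS-bla reporter stimulated with 17beta-estradiol; nearly all actives have a fitted effect of over 45% in size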)
# [16] = qHTS RealTime-Glo MT Cell Viability Assay in HEK293 cells - 32 hour (AID 1224868); also: nearly all actives have a fitted effect of over 50% in size; also: potency is read from the fitted curve at half-maximal effect
# Method in brief: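 Homogeneous bioluminescent viability format in HEK293 cells (600 cells/well). Following 5 h at 37 C/5% CO2, 23 nL compound was pintooled; the signal was measured repeatedly during 40 h incubation.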
# [17] = target: Vitamin D3 receptor (Homo sapiens) (UniProt P11473); assay: qHTS assay to identify small molecule agonists of the vitamin D receptor (VDR) signaling pathway (AID 743222; calls by dose curve; also: potency is read from the fitted curve at half-maximal effect); conditions: HEK293T VDR-UAS-bla, beta-lactamase FRET ratio, 16 h; activation: at 63.5 µM (top of the series) unless noted
# Method in brief: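 Agonist activity measured in VDR-bla reporter cells. Exposure 16 h, 37C, 5% CO2; detection by B/G FRET substrate, 2 h RT.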
# [18] = qHTS assay to identify small molecule antagonists of the vitamin D receptor (VDR) signaling pathway - cell viability counter screen (AID 743225); conditions: VDR-bla HEK293T viability, CellTiter-Glo luminescence, 16 h; viability change, negative = cytotoxic: at 61 µM (top of the series) unless noted; also: potency is read from the fitted curve at half-maximal effect; nearly all actives have a fitted effect of over 50% in size
# Method in brief: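 Viability counter screen run in the same wells as the beta-lactamase reporter assay: HEK 293T VDR-UAS-bla cells, 16 h compound exposure at 37C with 3 nM (final) 1-alpha,25-dihydroxyvitamin D3. CellTiter-Glo luminescence, 30 min, room temperature.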
# [19] = target: Thyrotropin receptor (Homo sapiens) (UniProt P16473); assay: qHTS assay to identify small molecule antagonists of the thyroid stimulating hormone receptor (TSHR) signaling pathway (AID 1259385; calls by dose curve; also: potency is read from the fitted curve at half-maximal effect; nearly all actives have a fitted effect of over 20% in size); conditions: TSHR-HEK293 cAMP HTRF, TSH-stimulated antagonist mode; activity change, negative = inhibition: at 92.4 µM (top of the series) unless noted
# Method in brief: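 TSHR-HEK293 cells (800/well) plated 18 h, then compounds with Ro20-1724 and TSH at 1.5 ng/mL final, 30 min at room temperature. cAMP quantified by HTRF (cAMP-d2/anti-cAMP-cryptate, 1 h); 15 concentrations in triplicate.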
# [20] = activation: at 92.4 µM (top of the series) unless noted
# Tags tell the direction and shape of the fitted curve or compound fluorescence and quenching.
# UniProt Q92731, sequence (Q92731 whole entry, looked up): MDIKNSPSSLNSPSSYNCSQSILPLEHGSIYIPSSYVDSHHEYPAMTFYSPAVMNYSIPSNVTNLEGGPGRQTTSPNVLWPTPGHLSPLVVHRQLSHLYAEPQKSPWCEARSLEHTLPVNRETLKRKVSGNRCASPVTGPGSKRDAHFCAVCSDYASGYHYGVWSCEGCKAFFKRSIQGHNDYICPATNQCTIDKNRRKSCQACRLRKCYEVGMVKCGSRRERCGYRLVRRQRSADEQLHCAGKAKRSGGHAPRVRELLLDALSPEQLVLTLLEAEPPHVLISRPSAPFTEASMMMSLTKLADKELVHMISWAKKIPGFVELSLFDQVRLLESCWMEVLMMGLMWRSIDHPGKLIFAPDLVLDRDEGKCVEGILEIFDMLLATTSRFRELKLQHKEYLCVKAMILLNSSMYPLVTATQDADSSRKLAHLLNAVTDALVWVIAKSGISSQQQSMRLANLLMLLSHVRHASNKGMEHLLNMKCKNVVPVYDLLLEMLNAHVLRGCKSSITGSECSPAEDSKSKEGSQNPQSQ
# UniProt P11473, sequence (P11473 whole entry, looked up): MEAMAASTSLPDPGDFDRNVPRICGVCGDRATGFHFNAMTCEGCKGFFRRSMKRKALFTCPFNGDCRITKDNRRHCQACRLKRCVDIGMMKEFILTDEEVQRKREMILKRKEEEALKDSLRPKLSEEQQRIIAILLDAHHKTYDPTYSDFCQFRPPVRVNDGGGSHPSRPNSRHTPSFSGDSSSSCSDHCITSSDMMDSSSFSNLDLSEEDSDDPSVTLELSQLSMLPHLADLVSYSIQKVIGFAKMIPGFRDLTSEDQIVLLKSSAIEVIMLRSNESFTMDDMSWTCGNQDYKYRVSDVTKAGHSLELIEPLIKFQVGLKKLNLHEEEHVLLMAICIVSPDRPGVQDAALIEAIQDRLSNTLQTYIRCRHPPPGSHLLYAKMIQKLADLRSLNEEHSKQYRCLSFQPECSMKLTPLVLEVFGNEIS
# UniProt O75469, sequence (O75469 whole entry, looked up): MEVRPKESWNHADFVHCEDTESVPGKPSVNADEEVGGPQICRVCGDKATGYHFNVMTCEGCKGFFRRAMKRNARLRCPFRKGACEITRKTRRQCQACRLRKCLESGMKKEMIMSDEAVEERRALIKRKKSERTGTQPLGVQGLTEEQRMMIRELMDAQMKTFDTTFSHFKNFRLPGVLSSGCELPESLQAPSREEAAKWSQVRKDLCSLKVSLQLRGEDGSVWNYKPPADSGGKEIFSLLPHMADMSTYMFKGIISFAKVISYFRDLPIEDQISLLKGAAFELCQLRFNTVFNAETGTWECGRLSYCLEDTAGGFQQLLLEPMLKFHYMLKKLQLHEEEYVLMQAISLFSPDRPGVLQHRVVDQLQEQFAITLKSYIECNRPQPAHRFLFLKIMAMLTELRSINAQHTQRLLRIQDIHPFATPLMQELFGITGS
# UniProt P03372, sequence (P03372 whole entry, looked up): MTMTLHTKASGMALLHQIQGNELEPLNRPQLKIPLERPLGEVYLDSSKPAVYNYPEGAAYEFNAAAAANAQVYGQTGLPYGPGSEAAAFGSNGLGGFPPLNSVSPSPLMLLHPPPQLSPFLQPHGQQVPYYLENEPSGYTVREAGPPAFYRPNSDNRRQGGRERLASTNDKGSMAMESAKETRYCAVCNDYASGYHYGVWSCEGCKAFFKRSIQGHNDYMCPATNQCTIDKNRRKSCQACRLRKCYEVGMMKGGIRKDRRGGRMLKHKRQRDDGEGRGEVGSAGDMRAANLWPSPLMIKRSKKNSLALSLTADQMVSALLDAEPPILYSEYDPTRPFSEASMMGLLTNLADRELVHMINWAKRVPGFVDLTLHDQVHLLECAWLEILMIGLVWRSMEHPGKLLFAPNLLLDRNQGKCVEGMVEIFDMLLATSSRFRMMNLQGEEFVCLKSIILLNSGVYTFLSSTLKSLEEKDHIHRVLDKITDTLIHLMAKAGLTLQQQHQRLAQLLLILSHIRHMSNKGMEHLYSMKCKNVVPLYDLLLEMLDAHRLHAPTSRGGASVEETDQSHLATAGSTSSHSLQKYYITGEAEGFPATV
# UniProt P37231, sequence (P37231 whole entry, looked up): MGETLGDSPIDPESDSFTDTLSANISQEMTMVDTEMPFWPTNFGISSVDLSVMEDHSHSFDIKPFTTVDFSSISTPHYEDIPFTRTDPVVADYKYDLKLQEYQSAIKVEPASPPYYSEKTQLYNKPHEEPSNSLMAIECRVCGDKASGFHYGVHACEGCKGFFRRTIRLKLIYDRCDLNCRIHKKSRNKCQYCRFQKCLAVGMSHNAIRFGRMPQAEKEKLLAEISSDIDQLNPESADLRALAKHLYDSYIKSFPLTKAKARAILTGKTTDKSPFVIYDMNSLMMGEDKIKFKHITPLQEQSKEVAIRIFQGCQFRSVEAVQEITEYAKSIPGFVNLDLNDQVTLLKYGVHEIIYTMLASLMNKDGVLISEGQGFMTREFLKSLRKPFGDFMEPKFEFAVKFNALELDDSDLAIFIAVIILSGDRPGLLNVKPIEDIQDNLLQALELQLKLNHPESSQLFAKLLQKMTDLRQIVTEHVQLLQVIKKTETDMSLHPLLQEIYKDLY
# UniProt P08684, sequence (P08684 whole entry, looked up): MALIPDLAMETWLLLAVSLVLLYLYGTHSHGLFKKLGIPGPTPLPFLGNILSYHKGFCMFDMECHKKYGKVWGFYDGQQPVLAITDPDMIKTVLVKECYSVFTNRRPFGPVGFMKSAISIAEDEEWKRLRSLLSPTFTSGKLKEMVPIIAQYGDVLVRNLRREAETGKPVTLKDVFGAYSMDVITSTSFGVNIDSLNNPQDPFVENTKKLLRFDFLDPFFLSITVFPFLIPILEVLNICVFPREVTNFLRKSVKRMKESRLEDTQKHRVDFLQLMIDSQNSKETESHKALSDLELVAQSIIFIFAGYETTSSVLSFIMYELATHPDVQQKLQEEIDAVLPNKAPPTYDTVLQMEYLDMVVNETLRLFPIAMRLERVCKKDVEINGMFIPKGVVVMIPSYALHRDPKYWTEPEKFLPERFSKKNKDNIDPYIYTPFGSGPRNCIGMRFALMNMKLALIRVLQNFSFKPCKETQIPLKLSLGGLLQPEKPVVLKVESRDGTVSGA
# UniProt P33261, sequence (P33261 whole entry, looked up): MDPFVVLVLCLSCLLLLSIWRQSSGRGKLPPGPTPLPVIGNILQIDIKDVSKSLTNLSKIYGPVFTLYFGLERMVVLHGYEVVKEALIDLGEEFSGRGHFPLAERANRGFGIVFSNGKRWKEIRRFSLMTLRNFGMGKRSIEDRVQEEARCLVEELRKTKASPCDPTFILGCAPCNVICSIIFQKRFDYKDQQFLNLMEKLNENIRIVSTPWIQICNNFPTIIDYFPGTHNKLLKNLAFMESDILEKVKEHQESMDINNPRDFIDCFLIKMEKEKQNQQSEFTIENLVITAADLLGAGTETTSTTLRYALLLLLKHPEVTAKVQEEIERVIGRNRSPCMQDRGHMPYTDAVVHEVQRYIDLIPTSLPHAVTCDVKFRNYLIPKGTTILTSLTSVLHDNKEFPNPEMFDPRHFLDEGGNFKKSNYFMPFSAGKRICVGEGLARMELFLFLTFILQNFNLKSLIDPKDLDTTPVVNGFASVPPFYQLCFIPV
# UniProt P16473, sequence (P16473 whole entry, looked up): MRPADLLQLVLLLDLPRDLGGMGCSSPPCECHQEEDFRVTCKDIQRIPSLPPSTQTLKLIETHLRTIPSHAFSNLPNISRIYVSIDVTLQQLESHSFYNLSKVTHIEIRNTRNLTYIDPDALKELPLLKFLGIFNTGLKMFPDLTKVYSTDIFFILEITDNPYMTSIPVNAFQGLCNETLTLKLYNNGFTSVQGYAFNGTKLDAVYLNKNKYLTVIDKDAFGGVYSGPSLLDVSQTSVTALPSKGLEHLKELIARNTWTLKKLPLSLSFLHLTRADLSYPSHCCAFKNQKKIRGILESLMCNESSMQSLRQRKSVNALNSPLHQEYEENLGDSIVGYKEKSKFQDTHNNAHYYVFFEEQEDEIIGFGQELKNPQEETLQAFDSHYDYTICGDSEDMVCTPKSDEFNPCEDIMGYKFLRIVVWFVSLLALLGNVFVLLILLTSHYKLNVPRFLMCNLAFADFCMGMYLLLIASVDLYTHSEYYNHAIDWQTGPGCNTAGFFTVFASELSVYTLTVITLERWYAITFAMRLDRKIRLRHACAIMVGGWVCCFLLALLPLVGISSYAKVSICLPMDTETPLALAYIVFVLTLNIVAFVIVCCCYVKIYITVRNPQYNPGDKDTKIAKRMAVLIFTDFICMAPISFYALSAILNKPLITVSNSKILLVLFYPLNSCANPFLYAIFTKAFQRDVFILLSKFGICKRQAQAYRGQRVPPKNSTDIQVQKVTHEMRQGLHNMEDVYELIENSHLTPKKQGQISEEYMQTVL
compound,measurement,setting,value
CCN(Cc1cccc(S(=O)(=O)O)c1)c1ccccc1,Potency,[1],inactive
same,Potency,[2],inactive
same,Potency,[3],inactive
same,Potency,[4],inactive
same,Potency,[5],"inconclusive: 89.4 µM [inhibitor, single point]"
c1ccc2c(c1)[nH]c1ccccc12,activation,[6]; at 92.4 µM (top of the series),inactive: 2.28%
C/C=C1\C(=O)C[C@H]2[C@@H]3CCC4=CC(=O)CC[C@]4(C)[C@H]3CC[C@]12C,Potency,[2],"inconclusive: 30.3 µM [activator, partial curve, poor fit]"
CN(C)CCc1c[nH]c2ccc(CS(=O)(=O)N3CCCC3)cc12,Potency,[7],inactive
O=Cc1cc2ccccc2o1,Potency,[7],inactive
CN1CN(C)CN(C)C1,Potency,[2],inactive
O=C(O[C@@H](C(=O)O)[C@@H](OC(=O)c1ccccc1)C(=O)O)c1ccccc1,Potency,[8],inactive
same,activation,[6]; [20],inconclusive: 14.8%
same,Potency,[3],inactive
same,Potency,[4],inactive
CN(C)CCN1CCOCC1,Potency,[9],inactive
same,Potency,[10],"inconclusive: 71 µM [inhibitor, partial curve, poor fit]"
NC(=O)NS(=O)(=O)c1ccc(Cl)cc1,Potency,[9],inactive
same,Potency,[11],"inconclusive: 26.6 µM [rising, partial curve]"
CO[Si](CCCNCCNCCN)(OC)OC,Potency,[4],inactive
CCC(C)C(=O)OC (stereo unspecified),Potency,[8],inactive
same,Potency,[2],inactive
same,Potency,[3],inactive
same,Potency,[4],inactive
O=C(CCCCC(=O)Nc1c(I)cc(I)c(C(=O)O)c1I)Nc1c(I)cc(I)c(C(=O)O)c1I,Potency,[8],"inconclusive: 24.7 µM [rising, full curve, poor fit]"
same,Potency,[11],"inconclusive: 11.9 µM [cytotoxic, full curve]"
NC(=O)Cc1cccc(C(=O)c2ccccc2)c1N,Potency,[9],inactive
CCC(C)(C)C1CCC(=O)CC1,Potency,[12],inactive
same,activation,[13],inconclusive: 11.9% [phenotype inactive]
same,Potency,[9],inactive
CCOC(=O)CN1CCCC1=O,Potency,[9],inactive
same,Potency,[14],inactive
CCCCCCCCCCCCCCCC(=O)NCCO,Potency,[15],inactive
same,Potency,[9],inactive
C1CCCCCCCCCCC1,Potency,[15],inactive
same,Potency,[13],inactive
same,Potency,[16],"inconclusive: 13.5 µM [cytotoxic, single point]"
same,Potency,[3],"inconclusive: 0.0532 µM [cytotoxic, single point]"
CCOC(=O)c1c(C)n(C)c2ccc(O)cc12,activation,[7],inconclusive: 2.93%
same,Potency,[17],inactive
same,Potency,[8],inconclusive: 61.9 µM [fluorescent]
same,Potency,[16],inactive
same,Potency,[6]; [20],"inconclusive: 26.6 µM [fluorescent, partial curve]"
same,Potency,[14],"inconclusive: 33.5 µM [cytotoxic, single point]"
same,Potency,[3],inactive
same,Potency,[4],inconclusive: 29.8 µM [activator]
CCCCCCC#CC(=O)OC,Potency,[9],inactive
same,Potency,[10],"inconclusive: 3.56 µM [inhibitor, single point]"
O=[N+]([O-])c1ccc(CO)cc1,Potency,[9],"inconclusive: 0.217 µM [cytotoxic, single point]"
same,Potency,[3],inactive
CCCCCCCC=O,Potency,[9],inactive
same,Potency,[14],"inconclusive: 30.4 µM [cytotoxic, single point]"
Cc1cc(C)c(C(=O)O)c(C)c1,Potency,[17],"inconclusive: 38.9 µM [rising, partial curve, poor fit]"
same,Potency,[18],"inconclusive: 12.3 µM [cytotoxic, single point]"
same,Potency,[9],inactive
same,Potency,[8],inactive
same,Potency,[2],inactive
CCOB(OCC)OCC,Potency,[9],inactive
same,Potency,[16],"inconclusive: 61.6 µM [cytotoxic, single point]"
COCCOCCOCCOCCOCCO,Potency,[15],inactive
same,Potency,[9],inactive
[Ca+2],Potency,[18],"inconclusive: 3.89 µM [cytotoxic, full curve, poor fit]"
same,Potency,[9],inactive
same,Potency,[1],inactive
COC(=O)c1ccc([N+](=O)[O-])cc1,Potency,[8],inactive
CCc1cccc(CC)c1N(COC)C(=O)CS(=O)(=O)O,Potency,[9],inactive
same,Potency,[1],inactive
same,Potency,[19],"inconclusive: 77 µM [falling, single point]"
C=CC(=O)N1CCOCC1,Potency,[9],inactive
c1cc(CCCc2ccncc2)ccn1,Potency,[15],inactive
same,Potency,[16],inactive
C1CN(CCOCCN2CCOCC2)CCO1,Potency,[13],inactive
same,Potency,[17],inactive
same,Potency,[9],inactive
same,Potency,[6]; [20],inactive
same,Potency,[11],inactive
same,Potency,[4],inactive
